Assay results published in ChEMBL document CHEMBL4888484, “Replenishing the malaria drug discovery pipeline: Screening and hit evaluation of the MMV Hit Generation Library 1 (HGL1) against asexual blood stage Plasmodium falciparum ,using a nano luciferase reporter read-out” (2022).
Screen size: about 4,800 compounds; about 420 (8.8%) showed an effect of 50% or more. Some of the results follow.

What follows are molecules tested on Plasmodium falciparum (assay: Confirmatory screen in NF54 nanoGlo assay, in single point, at 2uM, 72h). Conditions: timepoint 72 hour.
Format: functional, Erythrocyte

Row | SMILES | % Inhibition
1 | Cc1ccc(S(=O)(=O)Nc2c(S(=O)(=O)c3ccccc3)c3nc4ccccc4nc3n2CCc2ccccc2)cc1 | 97%
2 | O=C(Nc1ccc(N2CCn3c(nc4cc(Cl)ccc43)C2)cc1)c1ccc(F)cc1 | -6%
3 | CN(C)c1nccc(NC[C@H](N)c2ccccc2)n1 | -13%
4 | O=C(c1ccc(F)cc1)c1c[nH]c(C(=O)NCc2ccc(F)cc2)c1 | -27%
5 | COc1cccc(N2CCN(c3cc4n[nH]c(=O)n4cn3)CC2)c1 | 4%
6 | Cc1ccoc1C(=O)Nc1ccc(Cc2nnc3ccccn23)cc1 | -10%
7 | CCNC(=O)c1nc(C(=O)NCc2ccco2)cs1 | -12%
8 | COc1ccc(-c2nn3c(C4CCN(C)CC4)nnc3s2)cc1 | -11%
9 | COc1ccc(-c2noc(CCn3c(=O)[nH]c4cc5c(cc4c3=O)OCO5)n2)c(OC)c1 | -1%
10 | COc1cccc(-c2nn(-c3nc(-c4ccccc4)cc(C(F)(F)F)n3)c(-c3cccc(OC)c3)c2Cl)c1 | 54%
11 | Cc1ccc(C)c(S(=O)(=O)NCCNc2ccc(Nc3ccncc3)nn2)c1 | 28%
12 | CCOC(=O)c1cc(F)cc(S(=O)(=O)Nc2ccnc3ncnn23)c1 | 34%
13 | COc1ccc(S(=O)(=O)N(CC(=O)NCc2cccnc2)C2CCCCC2)cc1OC | -1%
14 | COc1ccc(CCNC(=O)C2CCN(c3nccn4nc5c(c34)CCCC5)CC2)cc1OC | 43%
15 | O=C(NCc1ccc(F)cc1F)c1ccc(Cn2ccn3nc4c(c3c2=O)CCCC4)cc1 | -8%
16 | Cc1c(Cl)cccc1NC(=O)CN1N=C(C(=O)Nc2ccccc2)CCC1=O | -6%
17 | Cc1cc(-c2nnc(Cc3cccc(Cl)c3)o2)n(C)n1 | -6%
18 | CCc1ccc(C(=O)NCCCC2CCCC2O)cc1S(=O)(=O)N1CCOCC1 (centres undefined) | 48%
19 | O=C(O)C1Cc2c([nH]c3ccccc23)C(c2ccc3c4c(cccc24)CC3)N1 (centres undefined) | -1%
20 | CN(C)c1ccc(NC(=O)C[C@@H]2C=CCC2)cc1 | 1%
21 | CC[C@@H](C(N)=O)N1CCN(Cc2nc(-c3cccs3)no2)CC1 | -4%
22 | CC(C)c1cc(CN(Cc2cc(C(C)C)c(O)c(C(C)C)c2)C2CCCCC2)cc(C(C)C)c1O | 96%
23 | O=C(NCc1nccs1)[C@@H]1CCCN1C(=O)c1ccco1 | -11%
24 | CCc1ccc(C(=O)Nc2cnc(-n3ccnc3)nc2)cc1 | 46%
25 | COc1ccc(NC(=O)C2(N(Cc3nc(-c4ccccc4)cs3)C(=O)Cn3nnc4ccccc43)CCCCC2)cc1 | 23%
26 | CCOc1ccc(C/C(=C/N)c2nc(-c3ccc(Cl)cc3)cs2)cc1 | 9%

Row | SMILES | % Inhibition
27 | CC(=O)N(c1nc(COc2nc(C(C)(C)C)no2)cs1)c1ccccc1F | 17%
28 | COC1CCC(CC(=O)N[C@H]2CC(=O)N(c3ccccc3)C2)CC1 (some centres undefined) | 2%
29 | CNCCc1c(-c2ccccc2)[nH]n(-c2ccccc2)c1=O | 63%
30 | CCC[N+]1(CC#C[C@@](O)(c2ccccc2)C(C)(CC)CC)CCCCC1 | 48%
31 | COC(=O)c1cn(CCc2c[nH]c3ccccc23)cc(C(=O)OC)c1=O | 4%
32 | Cc1nn(Cc2ccc(Cl)cc2)c(=O)n1-c1ccc(OCc2ccccc2)cc1 | -9%
33 | Cc1noc(Cn2c(=O)c3ccccc3n(CC(=O)Nc3ccc(F)cc3F)c2=O)n1 | 1%
34 | CN(CCN)c1ccc(Br)cc1C#N | 0%
35 | O=C(CCC(=O)NCc1ccccc1)NCCCN1CCOCC1 | 4%
36 | Cc1ccc(F)cc1NC(=O)c1nnn(CC(=O)NCc2ccccc2Cl)c1C | -10%
37 | Cc1cc(C(=O)Nc2nc(-c3ccc4c(c3)CCC4)n[nH]2)no1 | 4%
38 | CCC(C)(C(=O)NC1CCCC1)N(C(=O)c1cccs1)C1CCCO1 (centres undefined) | -11%
39 | COCc1nncn1C1CN(C(=O)Cc2ccccc2C)C1 | -13%
40 | O=C(NC1CCCC1)c1cc2c(Cl)ccc3c2n1CCO3 | -2%
41 | CC(C)(CNC(=O)[C@](C)(N)c1ccccc1)C(=O)O | -11%
42 | Cn1cc(CCn2nccc2-c2ccc(F)c(Cl)c2)cn1 | -7%
43 | O=C(NC(c1ccccc1)C1CCOC1)c1cn(C2CCOC2)nn1 (centres undefined) | -1%
44 | Cc1ccc(NC(=O)[C@@H]2CC(=O)N=C(N3CCOCC3)N2)cc1Cl | 5%
45 | COC1(CNC(=O)NC2CC=CC2)CCC1 | 5%
46 | CC1CC(C)CC2(C1)NC(=O)N(CCC1OCCO1)C2=O (centres undefined) | -1%
47 | CN(C)c1nc(CN2CCC[C@H](c3n[nH]c(-c4ccccc4)n3)C2)ns1 | -1%
48 | CC1CN(C(=O)c2n[nH]c3ccccc23)CC(C)O1 (centres undefined) | -4%
49 | CC(C)(C)CC(=O)Nc1ccccc1C(N)=O | 6%
50 | COc1cc(NC(=O)N2CC(c3noc(-c4ccccc4)n3)C2)cc(OC)c1OC | 2%
51 | O=C(C[C@H]1CCN(C(=O)c2cc(F)ccc2F)C1)NC1CC1 | -2%
52 | Cn1nnnc1NC/C=C/c1ccccc1 | -4%

Row | SMILES | % Inhibition
53 | O=C1CN(CC[C@H]2CCCO2)CCN1c1cccs1 | -14%
54 | Cc1ccc(CN2CCC3(CC2)C[C@@H](C(=O)NCc2ccccn2)N(C)C3)s1 | 0%
55 | C[C@H](NC(=O)CC1(C)CCCCC1)c1cnn(C)c1 | -9%
56 | CCC(=O)N(Cc1ccc(-c2ccc(Cl)cc2)o1)[C@H]1CCS(=O)(=O)C1 | 38%
57 | O=C1CN(C(=O)Cn2c(-c3ccccc3)cc3ccccc32)c2ccccc2N1 | 15%
58 | O=C(CN1CCN(c2ccccc2F)CC1)c1ccc2c(c1)OCO2 | -1%
59 | O=S(=O)(Cc1cc(Cl)cc(Cl)c1)NCCCCn1ccnc1 | -6%
60 | COc1cc(CN(C)[C@H]2CCc3nnc(C4CCOCC4)n3CC2)cc(OC)c1 | -9%
61 | O=C1CC(C(=O)N2CCOCC2)C(c2ccc3c(c2)OCCO3)O1 (centres undefined) | 5%
62 | NC[C@H]1CN(CCc2cccc(Cl)c2)C(=O)O1 | -8%
63 | O=C1CC(c2cccc(Br)c2)N(S(=O)Oc2ccccc2)c2ccccc21 (centres undefined) | 4%
64 | Cc1csc([C@@H]2CN(c3cnccn3)CCO2)n1 | 1%
65 | CC(C)Nc1nc2nonc2n2cnnc12 | 69%
66 | Cc1nc(-c2ccccc2)cc2nn(CC(=O)N3CCOCC3)c(=O)n12 | -11%
67 | COc1ccc(CN2CCC(C(=O)NCCCN3CCOCC3)CC2)c(OC)c1 | 4%
68 | O=C(Nc1cccc2cccnc12)c1ccccn1 | 80%
69 | Cc1nccn1-c1ncc(NC(=O)Nc2ccccc2)cn1 | 3%
70 | CCCCC1NC(=O)N([C@@H]2CCC(=O)N[C@H]2c2ccccc2)C1=O (some centres undefined) | 2%
71 | O=C(Nc1ccc(Cl)cc1)n1c(=S)oc2cc(Br)ccc21 | -5%
72 | CN(C)c1cc(C(=O)N2CCOC3CCCCC32)ccn1 (centres undefined) | 0%
73 | Cc1ccc(NC(=O)COC(=O)c2ccc3c(c2)N=S=N3)cc1 | -9%
74 | O=C(O)c1cc(N2CCN(c3ccccc3F)CC2)ccc1NC(=O)C1CCC1 | -5%
75 | CC1(C)CC[C@H](NC(=O)CCNc2ncccn2)c2ccccc21 | -8%
76 | COc1ccccc1CNCCNC(=O)c1ccncc1 | 8%
77 | O=S(=O)(c1ccc(F)c(Cl)c1)N1CC[C@H](Oc2ccncc2Cl)C1 | 75%
78 | Nc1ccccc1-c1nc(Nc2ncccn2)n[nH]1 | 2%

Row | SMILES | % Inhibition
79 | CC(=O)c1ccc(S(=O)(=O)N2CCC(C)(C(=O)NCc3ccc4c(c3)OCO4)CC2)cc1 | 0%
80 | O=C(Nc1ccc(F)cc1F)[C@@H]1CCCN1C(=O)c1ccco1 | -1%
81 | CN(C)c1ccc(-c2nc([C@H]3CCOC3)cs2)cc1 | 6%
82 | O=C(CNC(=O)c1ccc(Br)cc1)NC1CCCC1O (centres undefined) | -10%
83 | CC(C)C(=O)NCC(=O)Nc1ccc(C(F)(F)F)cc1 | -15%
84 | CC[C@H](C)N(CCC(=O)N1CCOCC1)C(=O)c1cc2n(n1)CCCN(Cc1ccccc1)C2=O | 1%
85 | CCn1nc(-n2cnnc2)c(NS(=O)(=O)c2cccc(Cl)c2)c1C | -12%
86 | CCCCC12CN(S(=O)(=O)c3ccccc3)CC(C)(CN(S(=O)(=O)c3ccccc3)C1)C2=O | -5%
87 | CC1CCCCC1NC(=O)N1CCCC2(CC=CCC2)C1 (centres undefined) | 1%
88 | Cc1ccccc1Cc1nnc2n1CCOC2 | -4%
89 | Cc1nn(CC2CC2)c(=O)n1-c1ccc(F)cc1 | -16%
90 | CC(C)C[C@H]1C(=O)NCCN1Cc1ncc(-c2ccccc2)o1 | -5%
91 | CO[C@H]1CCOC2(CCN(C(=O)c3ccccc3F)CC2)C1 | -5%
92 | C[C@H](C#N)CNc1ncc(Br)cn1 | 1%
93 | Cc1noc(OCCc2ccccc2)n1 | 7%
94 | COc1ccc(-c2cc(C[C@H]3CNCC[C@H]3CC(=O)Nc3ccccc3)no2)cc1 | -7%
95 | Brc1cc(Br)c2nc(-c3cnccn3)ccc2c1 | 4%
96 | Cc1ccc(C(=O)N(C(=O)c2ccc(C)cc2C)c2ccc(Br)cn2)c(C)c1 | -15%
97 | Cn1cc(C(=O)c2nc(-c3ccccc3Cl)no2)cn1 | -6%
98 | Cc1ccccc1[C@H]1CC(=O)Nc2c1c(C)nn2-c1nncc(-c2ccc(Cl)cc2)n1 | 16%
99 | Cc1noc(CCNC(=O)N2CCCCC[C@H]2c2ccc(C)o2)n1 | -5%
100 | COCc1ccc(C(=O)N(c2ccc(F)cn2)C2CCOCC2)cc1 | -8%
101 | Clc1ccc(OCCNCCOc2ccc(Cl)cc2Cl)c(Cl)c1 | 1%
102 | CCOc1cc(N2CCOCC2)c(OCC)cc1NC(=O)c1ccc(C)c(NC(=O)c2ccco2)c1 | 22%
103 | O=C1c2ccccc2N[C@]2(C(=O)Nc3ccccc32)N1c1ccc2c(c1)OCO2 | -6%
104 | Oc1ccc(-c2nc(-c3c[nH]c4ccccc34)cs2)cc1 | 12%
